Results reported in publication PMC9911399, “Two distinct binding modes provide the RNA-binding protein RbFox with extraordinary sequence specificity”.
Positions count from the first letter of the chain named. Some of the results follow.

T1: RBFOX1 RRM (Homo sapiens, UniProt Q9NWB1 109-208)
T1 sequence: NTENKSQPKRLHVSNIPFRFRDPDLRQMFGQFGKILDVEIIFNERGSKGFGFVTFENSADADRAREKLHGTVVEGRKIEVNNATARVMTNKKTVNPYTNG

B1: AUCUUAA (DNA:RNA)
RNA: GGGAGACCGGAAUUCAGAUUGUCCAUCUUAAUUAAAUCCCGUCGUAGCCACCA
DNA 1: CAATCTGAATTCCGGTCTCCC
DNA 2: TGGTGGCTACGACGGGATT
B2: CUCGCAU (DNA:RNA)
RNA: B1 RNA with A25C, U28G, U29C, A31U
DNA 1: CAATCTGAATTCCGGTCTCCC
DNA 2: TGGTGGCTACGACGGGATT
B3: UCUUUAG (DNA:RNA)
RNA: B1 RNA with A25U, U26C, C27U, A31G
DNA 1: CAATCTGAATTCCGGTCTCCC
DNA 2: TGGTGGCTACGACGGGATT
B4: UCGGGAC (DNA:RNA)
RNA: B1 RNA with A25U, U26C, C27G, U28G, U29G, A31C
DNA 1: CAATCTGAATTCCGGTCTCCC
DNA 2: TGGTGGCTACGACGGGATT
B5: GAUUCCA (DNA:RNA)
RNA: B1 RNA with A25G, U26A, C27U, U29C, A30C
DNA 1: CAATCTGAATTCCGGTCTCCC
DNA 2: TGGTGGCTACGACGGGATT
B6: CUCGCUG (DNA:RNA)
RNA: B1 RNA with A25C, U28G, U29C, A30U, A31G
DNA 1: CAATCTGAATTCCGGTCTCCC
DNA 2: TGGTGGCTACGACGGGATT
B7: CGAUAAA (DNA:RNA)
RNA: B1 RNA with A25C, U26G, C27A, U29A
DNA 1: CAATCTGAATTCCGGTCTCCC
DNA 2: TGGTGGCTACGACGGGATT
B8: AAUCGAU (DNA:RNA)
RNA: B1 RNA with U26A, C27U, U28C, U29G, A31U
DNA 1: CAATCTGAATTCCGGTCTCCC
DNA 2: TGGTGGCTACGACGGGATT
B9: GCGCGCG (DNA:RNA)
RNA: GGGAGACCGGAAUUCAGAUUGUCCGCGCGCGUUAAAUCCCGUCGUAGCCACCA
DNA 1: CAATCTGAATTCCGGTCTCCC
DNA 2: TGGTGGCTACGACGGGATT
B10: CACUAGU (DNA:RNA)
RNA: B1 RNA with A25C, U26A, U29A, A30G, A31U
DNA 1: CAATCTGAATTCCGGTCTCCC
DNA 2: TGGTGGCTACGACGGGATT
B11: GGACGCG (DNA:RNA)
RNA: B9 RNA with C26G, G27A
DNA 1: CAATCTGAATTCCGGTCTCCC
DNA 2: TGGTGGCTACGACGGGATT
B12: CAGUUAA (DNA:RNA)
RNA: B1 RNA with A25C, U26A, C27G
DNA 1: CAATCTGAATTCCGGTCTCCC
DNA 2: TGGTGGCTACGACGGGATT
B13: AGCUGCC (DNA:RNA)
RNA: B1 RNA with U26G, U29G, A30C, A31C
DNA 1: CAATCTGAATTCCGGTCTCCC
DNA 2: TGGTGGCTACGACGGGATT
B14: AACAAAC (DNA:RNA)
RNA: B1 RNA with U26A, U28A, U29A, A31C
DNA 1: CAATCTGAATTCCGGTCTCCC
DNA 2: TGGTGGCTACGACGGGATT
B15: UCCGGCC (DNA:RNA)
RNA: B9 RNA with G25U, G27C, C28G, G31C
DNA 1: CAATCTGAATTCCGGTCTCCC
DNA 2: TGGTGGCTACGACGGGATT
B16: UCCCUGC (DNA:RNA)
RNA: B1 RNA with A25U, U26C, U28C, A30G, A31C
DNA 1: CAATCTGAATTCCGGTCTCCC
DNA 2: TGGTGGCTACGACGGGATT
B17: GUACUCG (DNA:RNA)
RNA: B9 RNA with C26U, G27A, G29U
DNA 1: CAATCTGAATTCCGGTCTCCC
DNA 2: TGGTGGCTACGACGGGATT
B18: AUGAGUA (DNA:RNA)
RNA: B1 RNA with C27G, U28A, U29G, A30U
DNA 1: CAATCTGAATTCCGGTCTCCC
DNA 2: TGGTGGCTACGACGGGATT
B19: GCGUAAC (DNA:RNA)
RNA: B9 RNA with C28U, G29A, C30A, G31C
DNA 1: CAATCTGAATTCCGGTCTCCC
DNA 2: TGGTGGCTACGACGGGATT
B20: GCGUAAU (DNA:RNA)
RNA: B9 RNA with C28U, G29A, C30A, G31U
DNA 1: CAATCTGAATTCCGGTCTCCC
DNA 2: TGGTGGCTACGACGGGATT
B21: CAGCCCC (DNA:RNA)
RNA: B9 RNA with G25C, C26A, G29C, G31C
DNA 1: CAATCTGAATTCCGGTCTCCC
DNA 2: TGGTGGCTACGACGGGATT
B22: ACGACUA (DNA:RNA)
RNA: B1 RNA with U26C, C27G, U28A, U29C, A30U
DNA 1: CAATCTGAATTCCGGTCTCCC
DNA 2: TGGTGGCTACGACGGGATT
B23: CUUUAGG (DNA:RNA)
RNA: B1 RNA with A25C, C27U, U29A, A30G, A31G
DNA 1: CAATCTGAATTCCGGTCTCCC
DNA 2: TGGTGGCTACGACGGGATT
B24: AGGAAAU (DNA:RNA)
RNA: B1 RNA with U26G, C27G, U28A, U29A, A31U
DNA 1: CAATCTGAATTCCGGTCTCCC
DNA 2: TGGTGGCTACGACGGGATT
B25: UGCUACA (DNA:RNA)
RNA: B1 RNA with A25U, U26G, U29A, A30C
DNA 1: CAATCTGAATTCCGGTCTCCC
DNA 2: TGGTGGCTACGACGGGATT
B26: CUCUUAG (DNA:RNA)
RNA: B1 RNA with A25C, A31G
DNA 1: CAATCTGAATTCCGGTCTCCC
DNA 2: TGGTGGCTACGACGGGATT
B27: ACUUCGU (DNA:RNA)
RNA: B1 RNA with U26C, C27U, U29C, A30G, A31U
DNA 1: CAATCTGAATTCCGGTCTCCC
DNA 2: TGGTGGCTACGACGGGATT
B28: UCGCGUG (DNA:RNA)
RNA: B9 RNA with G25U, C30U
DNA 1: CAATCTGAATTCCGGTCTCCC
DNA 2: TGGTGGCTACGACGGGATT
B29: UUGGGAC (DNA:RNA)
RNA: B1 RNA with A25U, C27G, U28G, U29G, A31C
DNA 1: CAATCTGAATTCCGGTCTCCC
DNA 2: TGGTGGCTACGACGGGATT
B30: CACUGCG (DNA:RNA)
RNA: B9 RNA with G25C, C26A, G27C, C28U
DNA 1: CAATCTGAATTCCGGTCTCCC
DNA 2: TGGTGGCTACGACGGGATT
B31: UUUACAA (DNA:RNA)
RNA: B1 RNA with A25U, C27U, U28A, U29C
DNA 1: CAATCTGAATTCCGGTCTCCC
DNA 2: TGGTGGCTACGACGGGATT

The binders below were run against T1, RBFOX1 RRM (assay: EMSA; HiTS-Eq, 1 nM pool, 10 min; buffer printed only for the single-RNA assays: 10 mM Tris pH 7.5, 150 mM NaCl, 3.4 mM EDTA, 0.001% NP-40, 30 C). Settings: tags: His6 N-terminal (pET28a); label: 5' 32P.
In short: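 Purified wild-type or mutant RbFox RRM at increasing concentrations was equilibrated with 1 nM of 5′-radiolabelled RNA carrying 7 randomized nucleotides for 10 min in 50 µL. Unbound RNA was separated by 8% native PAGE and sequenced. Relative association constants came from read-count changes of each RNA species compared with the control reaction, normalised to the cognate motif.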
B1 was tested, and the binding signal was 0.00359 KA relative to UGCAUGU. With B2 the binding signal was 0.0136 KA relative to UGCAUGU. In the case of B3, the binding signal is reported as 0.0126 KA relative to UGCAUGU. B4 was tested, and the binding signal was 0.00547 KA relative to UGCAUGU. B5 was tested, and the binding signal was 0.00974 KA relative to UGCAUGU. In the case of B6, the binding signal is reported as 0.0129 KA relative to UGCAUGU. For B7, the binding signal was 0.0045 KA relative to UGCAUGU. B8 was tested, and the binding signal was 0.00636 KA relative to UGCAUGU. In the case of B9, the binding signal is reported as 0.0205 KA relative to UGCAUGU. For B10, the binding signal was 0.00197 KA relative to UGCAUGU. B11 was tested, and the binding signal was 0.0131 KA relative to UGCAUGU. In the case of B12, the binding signal is reported as 0.00222 KA relative to UGCAUGU. B13 was tested, and the binding signal was 0.0145 KA relative to UGCAUGU. In the case of B14, the binding signal is reported as 0.00046 KA relative to UGCAUGU. In the case of B15, the binding signal is reported as 0.00966 KA relative to UGCAUGU. For B16, the binding signal was 0.0242 KA relative to UGCAUGU. In the case of B17, the binding signal is reported as 0.0142 KA relative to UGCAUGU. In the case of B18, the binding signal is reported as 0.00835 KA relative to UGCAUGU. B19 was tested, and the binding signal was 0.00892 KA relative to UGCAUGU. For B20, the binding signal was 0.00593 KA relative to UGCAUGU. In the case of B21, the binding signal is reported as 0.00224 KA relative to UGCAUGU. B22 was tested, and the binding signal was 0.00262 KA relative to UGCAUGU. With B23 the binding signal was 0.0115 KA relative to UGCAUGU. For B24, the binding signal was 0.0084 KA relative to UGCAUGU. With B25 the binding signal was 0.0119 KA relative to UGCAUGU. With B26 the binding signal was 0.00731 KA relative to UGCAUGU. With B27 the binding signal was 0.0148 KA relative to UGCAUGU. With B28 the binding signal was 0.0257 KA relative to UGCAUGU. With B29 the binding signal was 0.00488 KA relative to UGCAUGU. With B30 the binding signal was 0.0107 KA relative to UGCAUGU. B31 was tested, and the binding signal was 0.00179 KA relative to UGCAUGU.
